This is one part of the list.
What follows are sequences tested on PfAP2-HC AP2 domain (GST-tagged) (assay: gcPBM binding intensity (ln(normalized median fluorescence intensity)); higher = stronger DNA binding).
Outline: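 Binding intensity values are the highest Masliner-normalised natural-log median intensity among replicate spots of either probe orientation. The binding step lasted 1 h in 1× PBS with 1% milk, 0.2 mg/ml BSA, 0.5% salmon testes DNA and 0.03% Triton X-100, using GST-tagged P. falciparum DNA-binding domains expressed in E. coli on an Agilent 4 × 180k array of primer-extended double-stranded 36-bp intergenic genomic probes plus negative controls. Alexa488 anti-GST antibody and a 488 nm scan detected bound protein.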

Sequence | gcPBM binding intensity (ln)
TATATTTATTTTCTGTGTACACATATGTTGTGTATT [XGTACX_site7640] | 9.93
AAAACCTAGTGCATTTGTACATATTTCAATTTTAAA [XGTACX_site4582] | 9.59
TAAAAAATACAAGAGTGTACAAAATTTTTCTAAATG [XGTACX_site5334] | 9.77
AATATAAATGTGATTACACACAACAGATTTAAATGG [CACACA_site4802] | 10.1
TTATTTTTTAATTATATTCAAAATTAAAAAAAAAAA [XGTACX_negctrl_site226] | 8.71
ATTGATAAATTAACTAGTACACATATAAATATATTA [XGTACX_site2325] | 9.57
ATTAAAAAAAAAAAAAAAAAAAAAAAAAAAAAAAAA [CACACA_negctrl_site1060] | 8.97
AACAATAATTTTGAATGTACATATAAATATTTTTAT [XGTACX_site5501] | 9.62
ATATACATATAGGATGCACACATAATTCAAATACAA [CACACA_site8120] | 10.2
AAAAAAAAGAATAGCACACACACATATATAAATATA [CACACA_site630] | 10.5
TATAATGGTTCTGGTGTGCACCATGACAGAATCAAG | 9.61
TCTTATAAAGGTAATTGTACATATTTATAATTTCTT [XGTACX_site4847] | 9.58
GTGAAAGGAAAAGTTGAACACACAAAGTAAACTATA [CACACA_site9178] | 9.9
AATAATATTTAATACGCACACAATAATAATATAAAA [CACACA_site1763] | 10.1
CACACGCACGAACACACACACATATAAATATAAATA [CACACA_site6299] | 10.2
ATATATTATTATACATGTACATATATAGATATATAT [XGTACX_site4358] | 9.7
TATATTTTTATTGAACGTACAAAAAGTCGAAAACAG [XGTACX_site3967] | 9.56
TTTAAATACAGACATACACACATACACGCACATATA [CACACA_site6400] | 10.5
AGGTAGAAATTGTTAAAAAATCATACATATTATATA [CACACA_negctrl_site622] | 9.52

Sequence | gcPBM binding intensity (ln)
GTTAATTCTATGAATTGTACTTAAATATAATTATAT [XGTACX_site2785] | 9.33
ATAAATACTAAAAATGAAATATAGAAAATAGCAATA [CACACA_negctrl_site501] | 9.82
CAAAATAAAAATAACACACACATTTATATAAATACA [CACACA_site4790] | 10.2
ACAGTTAAAACAATAACACACAAAGAAAAAAAAAAA [CACACA_site737] | 9.8
TATAATATATTATATACACACATTATAAAATACCCA [CACACA_site4858] | 9.83
GAAAAAAGAAATTTATGTACATACATATATATATAT [XGTACX_site7888] | 9.74
ATATGTAAAATATGGGGTACGAAGGTAGGTAGGTAA [XGTACX_site1392] | 10.1
ATTCTATATGTTACATAAACCTATATTTTTTTTTTT [CACACA_negctrl_site860] | 9.58
ATAAAGCCATACAATACACACATTTTACATGTCGGT [CACACA_site3265] | 9.98
TAAGCCACCATATTTACACACACATCAAAATGTATT [CACACA_site1815] | 10.1
TAAATAATATAATTATGTACGTATTTCTTTATTTTA [XGTACX_site8410] | 9.61
GCTGAAAATAAATGAAGTACACAAGTAATATATATA [XGTACX_site6205] | 9.75
TAATATTGACTATATACACACATATAAATATAAATA [CACACA_site6414] | 9.74
TATATATATATATATACATGCATCATTGTTCACCTT [TGCATGCA_site177] | 9.77
TTTTTTTTTTAATTAACACACATAAATATAAATATA [CACACA_site7527] | 9.49
AAAAAAAAAAAAAAAAGTACATATGCTCAAGAGATG [XGTACX_site3783] | 9.54
CATTCAAAGAAAAACAGTACGTGTAGCAAAAGGCCT [XGTACX_site266] | 9.69
TGAATAAAATATTATACACACATATGTATTTAACAT [CACACA_site4694] | 9.79
TTGTATTTACTATACACACACATACATACATACATA [CACACA_site4603] | 10.2

Sequence | gcPBM binding intensity (ln)
AATGGGATCATGGTATGTACTTACACAAATGAATTA [XGTACX_site5389] | 9.61
ATCATTTAAACAATATGTACTCATTGTAGATATGGT [XGTACX_site5088] | 9.55
ATATATATATATATGTGTACATATTAGTGATATAAT [XGTACX_site7161] | 9.83
AATGCGCATTTTTTTTTTTTTTTTTTTTTTTTTTTT [XGTACX_negctrl_site258] | 9.32
CGTTACACAAAAATATGTACATATATACATATATAT [XGTACX_site4631] | 9.86
TATAAATATAAATACTGTACATTATATTATATAATA [XGTACX_site2480] | 9.5
TATTCCCCCAAACACACACACACACCCACATACCAC [CACACA_site2304] | 10.7
TAAAAATAATATTAATGTACATTACATATTAATATA [XGTACX_site1019] | 9.45
GAAAAAAAAATATCTTGTACTTACATAACTATTGGT [XGTACX_site5326] | 9.55
AAAGGTTTATCTGATACACACATAAGTGATCAGGTT [CACACA_site6233] | 9.67
TAAATTAAAAAACATAAACTATTGGAAACGCATTGA [CACACA_negctrl_site935] | 9.7
TATACATATGTATGCACACATACATACCCATATAAT [CACACA_site5842] | 9.82
CTATATATAAAATATTGTACTTATTTTTATTACATC [XGTACX_site3963] | 9.63
TTTTCTCAATTTTGGTGTACTTTTTTCTTAACACAT [XGTACX_site8918] | 9.83
TATTTAAAATATTAAATTTGTAAAGTTCGAGGGAAG [GTGCAC_negctrl_site337] | 9.53
ACACAATAAACATTATGTACATATAATGTTCTGTGT [XGTACX_site3381] | 9.8
AATGATAATCTATTATGTACACATATATTCTTATGT [XGTACX_site4148] | 9.94
TATTTTTATCAATTCACACATAAATATATTTATATG [CACACA_site5547] | 9.61
